{"source": "paper PMC12136788", "binders": {"B1": {"name": "114940117_114940237_3560_3pUTR_ENSG00000197323_ENST00000358465|human|control|control (ssRNA)", "RNA": "GGGAGUUCUACAGUCCGACGAUCUAAUACUGUGUAAAAGCUAUCAGCUUCUUCAAGGAGGUGCCCACUGUAGGCAGGAUAUUCCAGCAACACUUAAAAGUUUUCUGGGUUUUUUGUGUUUUUUUUUUUUUUUUCGUUUUUUUUCAACAGAGGAUUGAGCAUCA"}, "B2": {"name": "chr2:47387770:47387771:-_ENSG00000143933_ENST00000272298|hu_mus|hu_hu_hu_mus_True|1_1 (ssRNA)", "RNA": "GGGAGUUCUACAGUCCGACGAUCAAGGUUUAAGGACAAUGACAGUAAGAUAAGGGAAGAAAACAUGGAGGAAUGAAGUCCUAAUUACUAUACAUGCAUAUUUUUUGACAGUAGGGGGGGGGAACCUUUUACAGAUAUUACAAACAACAGAGGAUUGAGCAUCA"}, "B3": {"name": "chr18:33744517:33744518:+_ENSG00000134759_ENST00000351393|hu_hu|FALSE|FALSE (ssRNA)", "RNA": "GGGAGUUCUACAGUCCGACGAUCUAAGAACUUCUCAUUAGGUGAGAAGGCCAUCUGCGUGACUGUCAAACUGUGGAAAACUAAAUUCUGCACCUGUUUCCAAGAUGUAGUGUUCCAAAGAAUGAUAGCUGCAUGCUCUUUCUUCAACAGAGGAUUGAGCAUCA"}, "B4": {"name": "chr9:87430539:87430540:+_ENSG00000148053_ENST00000359847|hu_mus|FALSE|FALSE (ssRNA)", "RNA": "GGGAGUUCUACAGUCCGACGAUCGAAAUGGAUGAAUUCAGCAAGUACAUUUAUAGUCUAGCCACACUGUUAAAACAGUACUUAAAAGUAAAAUCUUUUUUAAAAAAAGAGAUGCAUUGUUUACAGGAAAUGUGAAAAAAGAGACAACAGAGGAUUGAGCAUCA"}, "B5": {"name": "chr22:42024162:42024163:+_ENSG00000196419_ENST00000405878|hu_mus|FALSE|FALSE (ssRNA)", "RNA": "GGGAGUUCUACAGUCCGACGAUCUUCAUCUUCACCCUGAGAUUCGAACAUAGCCCUGGAGGCAUCAACCAGAAAAAUCAAGCUAUCUCUUCCUGAAUAUUUAUAUUCUCCACCUGUGUCGGGGCUCUCCUCCUCCUCUUCCUCCAACAGAGGAUUGAGCAUCA"}, "B6": {"name": "chr11:80196919:80196920:+_ENSMUSG00000017421_ENSMUST00000017567|mus_mus|FALSE|FALSE (ssRNA)", "RNA": "GGGAGUUCUACAGUCCGACGAUCUUCUUCUUCUUGCGACCCAUAACUGCGCCCUACAGAACAGGCAGAAUAGAGGCGGAAAGAAGCUGGAAAAAACAAAAAACAAAAAACCCAAGAGACUCGCAGAGUUCUCCACACCAACCGCAACAGAGGAUUGAGCAUCA"}, "B7": {"name": "chr11:22646265:22646266:-_ENSG00000183161_ENST00000327470|hu_hu|motif|central (ssRNA)", "RNA": "GGGAGUUCUACAGUCCGACGAUCCAGCAUUGCCUAUACAGAACUGAGGCCUGCGCUGAGACCCAAAACUUGUCUUUUCCGGAAUGCACCACUACGAAGAGCUAAUAAGAGGUCUGUCCAGAUGCUAAGACCAGGUACUUCAAACAACAGAGGAUUGAGCAUCA"}, "B8": {"name": "chr4:95690885:95690886:+_ENSMUSG00000028572_ENSMUST00000156910|mus_mus|mus_mus_mus_hu_False|68_108 (ssRNA)", "RNA": "GGGAGUUCUACAGUCCGACGAUCUUUAUUUUUAGAAAAAUACCAUGCUAAAAUAUUUUCAAAGGCUAGUCUUAUUUUACCAGAAGUCACAGGCAAGCAGACACUACAAGAAUAUAUGAAAAUGAAACUCAACAAUAUAACUGUCAACAGAGGAUUGAGCAUCA"}, "B9": {"name": "chr17:5391764:5391765:+_ENSG00000167842_ENST00000381165|hu_hu|FALSE|FALSE (ssRNA)", "RNA": "GGGAGUUCUACAGUCCGACGAUCUGAGCUUCAAUGACCUAUAGCUCCACCUUUUAGCCACCUGGCUCUUGAUAUUUGUAACUACUCUUCCAAACUGCUUCUACUUUUUGACUACUGCCUCCUACACAAUUCUUCCAAUUCUUACAACAGAGGAUUGAGCAUCA"}, "B10": {"name": "chr7:151048522:151048523:+_ENSG00000013374_ENST00000566856|hu_mus|hu_hu_hu_mus_True|38_38 (ssRNA)", "RNA": "GGGAGUUCUACAGUCCGACGAUCCUGUUUCUUAUUUAUUACGAUCUUGAUGUAAUUUUCUUGAAAUCCGAAAGUUUCAGCUAUUUGACACCUCAGGUCUCUGCCAGUGACAUGCAAGCGGGUCUCCAACAAGCUUUUCUUAUCCAACAGAGGAUUGAGCAUCA"}, "B11": {"name": "chr1:39494564:39494565:+_ENSG00000168653_ENST00000372967|hu_hu|hu_hu_hu_mus_True|28_58 (ssRNA)", "RNA": "GGGAGUUCUACAGUCCGACGAUCAUGCAUUCGCCUCAUCGUUUUGUACCGAAGCAAGCACUCUUCGAAGUCAUCGAAUUCUAUCUUGCACUCCUUUUUCGCCCGGGUAUAACCGAUCCCGUGUGCACACUCUAUCCACUCUUUCAACAGAGGAUUGAGCAUCA"}, "B12": {"name": "chr3:9412954:9412955:+_ENSG00000134077_ENST00000452837|hu_mus|hu_hu_hu_mus_False|68_108 (ssRNA)", "RNA": "GGGAGUUCUACAGUCCGACGAUCGGUUGAUACAUCCUCUUUGAUGGCUGGAUUUUCAUAAUAGUCCAAGAUAUGAGAAUCUGAAGUGCUGCUGGCAUGCUUUUUCUUACCAUCUUUCUCAUCUGCUUUGUCUCCUUGUCCACACAACAGAGGAUUGAGCAUCA"}, "B13": {"name": "chr5:95130247:95130248:+_ENSG00000164292_ENST00000379982|hu_hu|FALSE|FALSE (ssRNA)", "RNA": "GGGAGUUCUACAGUCCGACGAUCGGUUUGUGAGUUUCUGAUAUAAUUAUUUCUCUAUACAUGUGAUAUGAAAGAAAGAAACUAUCAGUCUGUCCUCUAUCCCAGUCCAUUUUCCCUCUAUGUAACAAGUCUUUGACUUACAUCCAACAGAGGAUUGAGCAUCA"}, "B14": {"name": "chr2:157383019:157383020:-_ENSMUSG00000067787_ENSMUST00000109528|mus_mus|FALSE|FALSE (ssRNA)", "RNA": "GGGAGUUCUACAGUCCGACGAUCGGCAGGAGCCCAGAUACCCAGGCCAAAGAGCAAUGUCUCCCCAUCGCUUCUUUCUUAAAAAUGAGGCAGAGGAAAUACUGGAGGUCUGCAGACAACGAGCAGUUGAGACAUGAUUCCGUCCAACAGAGGAUUGAGCAUCA"}, "B15": {"name": "chr5:31194218:31194219:+_ENSMUSG00000029165_ENSMUST00000031057|mus_mus|motif|central (ssRNA)", "RNA": "GGGAGUUCUACAGUCCGACGAUCUAGAUCUACACGAAGUCCAUCCAGAGAAUAGCAGAGAAGCUCUCGGUGGUAAUAAAUACGGUCCAGAGGACUGCUAUGGGUAGAGUAAUUCUCUGAAAAGCGCUGGUCUAGCUGGCUCAGCAACAGAGGAUUGAGCAUCA"}, "B16": {"name": "71541968_71542166_3580_CDS_ENSMUSG00000053470_ENSMUST00000065509|mouse|control|control (ssRNA)", "RNA": "GGGAGUUCUACAGUCCGACGAUCUUGGAUGGUUCUAAGGACUUCUUCUUCUUGUUCACACUGUCCUUUGGGAAUUCCCACAUAAACCAUGACAUUGGCUGCAUCAGAUACAUCUAAGUGAAGAUUUGUGGUCCCAUAUUUCCGCAACAGAGGAUUGAGCAUCA"}, "B17": {"name": "110459826_110461364_3090_3pUTR_ENSG00000134987_ENST00000506538|human|control|control (ssRNA)", "RNA": "GGGAGUUCUACAGUCCGACGAUCCAGCUCUGUUUCAAUUCCUGAUGGGCCUGAUUCUUUCAGAAGGUUGAGAGCAGUGUCAUACUUAUUAUUUACCAGUCCUUCUUCAAGUUUCAAGCAGAAAUCUGAUUUUUGAGCCAAAACCAACAGAGGAUUGAGCAUCA"}, "B18": {"name": "chr16:46836887:46836888:-_ENSG00000155330_ENST00000285697|hu_mus|FALSE|FALSE (ssRNA)", "RNA": "GGGAGUUCUACAGUCCGACGAUCACCAACAGAGUUUGAAGACAAAUAUCAGAGAAUAAGUCUUUGAUUGAUAAUUUUUCUAUUUAUUUCUGCCAAGGCAACUGAAAACACGAAAGCCUUCUCAUCAGAGAGGUUAGCAUAGAUCAACAGAGGAUUGAGCAUCA"}, "B19": {"name": "chr11:87044885:87044886:-_ENSMUSG00000046442_ENSMUST00000055438|mus_mus|FALSE|FALSE (ssRNA)", "RNA": "GGGAGUUCUACAGUCCGACGAUCAGGACCAAUCAUCUCAACUGGUGGCAAAAAUUGGGUACUGUGAGGUUUGCUUGCUUCUAUUUGUGUGAGAUCUAGGUAGUCUGGAUCUUCCAGCACGUUGAUUUGGGGCCCUGGGCUGAGCAACAGAGGAUUGAGCAUCA"}, "B20": {"name": "chr17:13115065:13115066:+_ENSMUSG00000068039_ENSMUST00000151287|mus_mus|FALSE|FALSE (ssRNA)", "RNA": "GGGAGUUCUACAGUCCGACGAUCGAUACUUGCUCCAGAAGCUUUUGCAACAUGCUUCAGGUCUCGUUUUAAAACUCUCCUAACAGCCAUGGCACCAGCUUCCACAAAAUACUUGAGAUACAUAUCAUCAAUGCCACCAGUGGUCAACAGAGGAUUGAGCAUCA"}, "B21": {"name": "chr10:76910771:76910772:+_ENSG00000156671_ENST00000542569|perfect_dup|FALSE|FALSE (ssRNA)", "RNA": "GGGAGUUCUACAGUCCGACGAUCCAUGUCAGGCACACGCUCAUGAACAAUAACCAUAAUGAAAGACGUAAACCCAAAUACUAUAAAAACAUAUACACAACUCAGGAUGGUCUUCCAGUACUCUGGGUCCAGUCUUCGAGCAGACAACAGAGGAUUGAGCAUCA"}, "B22": {"name": "150069407_150069527_1215_CDS_ENSG00000214022_ENST00000425389|human|control|control (ssRNA)", "RNA": "GGGAGUUCUACAGUCCGACGAUCCCCGGUGUGCUGCCGCUGGUGGGCCCGCAGGAAGCGCUCCAGCCGGAAGCUCCUGCCGCAGUCGUCGCAGCUGUAGAGGGAGGGGGGGGCUUCGAUCGGGUCCUGCGGGUGCUCUGGCGGCAACAGAGGAUUGAGCAUCA"}}, "note": "This is one part of the list.", "data": [{"molecular_target": "T1, UNK ZnF1-3 (human, UniProt Q9C0B0 31-174)", "T1 sequence": "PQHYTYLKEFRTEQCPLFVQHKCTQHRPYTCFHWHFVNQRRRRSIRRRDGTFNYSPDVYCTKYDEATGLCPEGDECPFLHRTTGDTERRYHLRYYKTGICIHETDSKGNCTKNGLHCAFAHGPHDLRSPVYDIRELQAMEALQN", "experiment": "nsRBNS (natural sequence RNA bind-n-seq); RBNS binding buffer (assumed for nsRBNS): 25 mM Tris pH 7.5, 150 mM KCl, 3 mM MgCl2, 0.01% Triton X-100, 500 ug/ml BSA, 20 U/ml SUPERase-In, 4 C; UNK is unkempt and MSI1 is Musashi-1; names of the RNAs are library labels; protein concentration not given here; high values mean tight binding", "units": {"binding signal": "enrichment R"}, "values": [{"binder": "B1", "binding signal": 0.822}, {"binder": "B2", "binding signal": 2.28}, {"binder": "B3", "binding signal": 0.508}, {"binder": "B4", "binding signal": 1.68}, {"binder": "B5", "binding signal": 1.35}, {"binder": "B6", "binding signal": 1.67}, {"binder": "B7", "binding signal": 1.33}, {"binder": "B8", "binding signal": 1.58}, {"binder": "B9", "binding signal": 0.646}, {"binder": "B10", "binding signal": 0.695}, {"binder": "B11", "binding signal": 0.617}, {"binder": "B12", "binding signal": 0.684}, {"binder": "B13", "binding signal": 0.649}, {"binder": "B14", "binding signal": 1.24}, {"binder": "B15", "binding signal": 1.3}, {"binder": "B16", "binding signal": 0.688}, {"binder": "B17", "binding signal": 0.966}, {"binder": "B18", "binding signal": 1.24}, {"binder": "B19", "binding signal": 1.51}, {"binder": "B20", "binding signal": 0.985}, {"binder": "B21", "binding signal": 1.21}, {"binder": "B22", "binding signal": 0.454}]}]}
